# Among all 39,000 compounds or so, about 220 (0.56%) showed activity. This is one part of the list.
# Test system: Escherichia coli K-12 BW25113
# Assay: relative growth (OD600 normalised to plate interquartile mean) (fraction); higher = less growth inhibition, active = 0.2 or less
# Conditions: 50 µM; LB; incubation time: overnight (16-24 h)
# 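Further: static incubation at 37 °C against the wild-type strain, values averaged over two biological replicates.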
row,Structure (SMILES),relative growth
1,CO[C@@H]1CN(C)C(=O)c2cc(NS(=O)(=O)CC(F)(F)F)ccc2OC[C@H](C)N(Cc2nccs2)C[C@H]1C,inactive: 0.962
2,O=c1[nH][n+](-c2ccccc2)no1,inactive: 0.978
3,O=C(N[C@H](c1ccc(F)cc1)c1ccc2ccccc2n1)C1CCN(Cc2ccc3ccccc3n2)CC1,inactive: 1
4,C[C@H](CO)N1C[C@H](C)[C@H](CN(C)S(=O)(=O)c2cccc(F)c2)Oc2cc(Br)ccc2S1(=O)=O,inactive: 1.01
5,COc1ccc(CN(C)C[C@@H]2OCCCC[C@@H](C)Oc3ccc(NC(=O)Nc4c(C)noc4C)cc3C(=O)N([C@H](C)CO)C[C@H]2C)cc1,inactive: 1
6,C[C@@H]1CN([C@H](C)CO)C(=O)c2cc(NC(=O)Nc3cccc4ccccc34)ccc2O[C@@H](C)CCCCO[C@H]1CN(C)Cc1ccc(C(=O)O)cc1,inactive: 1.01
7,C[C@@H]1CCCCO[C@@H](CN(C)C(=O)Nc2ccccc2)[C@H](C)CN([C@H](C)CO)C(=O)c2cc(NC(=O)Nc3cccc4ccccc34)ccc2O1,inactive: 1.03
8,C[C@H](CO)N1C[C@H](C)[C@H](CN(C)C(=O)c2ccccc2)OCCCC[C@H](C)Oc2ccc(NC(=O)C3CCCCC3)cc2C1=O,inactive: 1.03
9,C[C@H]1CCCCO[C@H](CN(C)C(=O)CCCN(C)C)[C@@H](C)CN([C@@H](C)CO)C(=O)c2cc(NS(C)(=O)=O)ccc2O1,inactive: 0.981
10,Cn1cc(S(=O)(=O)N2CCN(c3ccc(F)cc3)CC2)c(=O)n(C)c1=O,inactive: 1.01
11,C[C@@H]1CCCCO[C@@H](CN(C)C(=O)CCC(F)(F)F)[C@@H](C)CN([C@@H](C)CO)C(=O)c2cc(NS(=O)(=O)c3cccs3)ccc2O1,inactive: 0.975
12,O=C(C[C@@H]1C[C@@H]2c3cc(NC(=O)C4CCOCC4)ccc3O[C@@H]2[C@H](CO)O1)NCc1ccc(Cl)cc1,inactive: 0.96
13,C=CC[C@H](CC(=O)N(CCO)Cc1ccccc1)C(=O)N[C@H](COC(=O)[C@H](CC=C)CC(=O)OC(C)(C)C)Cc1c[nH]c2ccccc12,inactive: 1.13
14,COCC(=O)N1C[C@@H](C)[C@H](OC)CN(C)C(=O)c2ccc(NC(=O)c3ccc(OC)cc3)cc2OC[C@H]1C,inactive: 1.02
15,Cc1noc(C)c1S(=O)(=O)N(C)C[C@H]1Oc2ccc(NS(=O)(=O)c3cn(C)cn3)cc2CC(=O)N([C@@H](C)CO)C[C@H]1C,inactive: 0.99
16,C[C@@H]1CN([C@@H](C)CO)C(=O)Cc2cc(NS(=O)(=O)c3ccc(Cl)cc3)ccc2O[C@H]1CN(C)C,inactive: 0.993
17,CC(C)NC(=O)N(C)C[C@@H]1Oc2ccc(NS(=O)(=O)c3ccccc3)cc2CC(=O)N([C@H](C)CO)C[C@H]1C,inactive: 0.983
18,C[C@H]1CCCCO[C@H](CN(C)C(=O)CCC(F)(F)F)[C@@H](C)CN([C@@H](C)CO)C(=O)c2cc(NS(=O)(=O)c3cccs3)ccc2O1,inactive: 0.995
19,COc1ccc(NC(=O)Nc2ccc3c(c2)C(=O)N([C@H](C)CO)C[C@H](C)[C@@H](CN(C)C(=O)Nc2cccc4ccccc24)O3)cc1,inactive: 0.974
20,COc1ccc(CN(C)C[C@H]2OCCCC[C@@H](C)Oc3ccc(NC(=O)NC(C)C)cc3C(=O)N([C@@H](C)CO)C[C@H]2C)cc1,inactive: 1.02
21,C[C@@H]1CN([C@@H](C)CO)C(=O)c2c(c3ccccc3n2C)-c2ccccc2CO[C@H]1CN(C)S(=O)(=O)c1ccc(Cl)cc1,inactive: 1.07
22,CC(C)NC(=O)Nc1ccc2c(c1)C(=O)N([C@H](C)CO)C[C@H](C)[C@@H](CN(C)CC1CCCCC1)OCCCC[C@H](C)O2,inactive: 0.832
23,C[C@@H]1CN([C@H](C)CO)C(=O)CCCn2nncc2CO[C@@H]1CN(C)C(=O)Nc1ccccc1C(F)(F)F,inactive: 0.997
24,CC(C)[Si]1(C(C)C)OCc2cc(CCCc3cc4c(c(CCc5ccccc5)n3)[Si](C(C)C)(C(C)C)OC4)nc(CCc3ccccc3)c21,inactive: 1.02
25,COc1ccc(CN(C)C[C@H]2Oc3c(NC(=O)C4CCOCC4)cccc3C(=O)N([C@@H](C)CO)C[C@@H]2C)cc1,inactive: 0.994
26,C[C@@H]1CN([C@@H](C)CO)C(=O)c2c(c3ccccc3n2C)-c2ccccc2CO[C@@H]1CN(C)C(=O)Nc1cccc(F)c1,inactive: 0.983
27,CS(=O)(=O)Cc1nc2ccccc2oc1=O,inactive: 0.964
28,CNC[C@@H]1Oc2ccc(NC(=O)Cn3cnnn3)cc2C(=O)N([C@@H](C)CO)C[C@@H]1C,inactive: 0.997
29,CC(=O)OCC(CCn1cnc2cnc(N)nc21)COC(C)=O,inactive: 1.07

# Source: the supplement of paper PMC9446081
